Measurements as given in article PMC4336329 (PLoS ONE, 2015).
In all, about 310,000 compounds went through this assay and about 2,200 (0.71%) showed an effect of 50% or more. Effects have a minus sign here. The list shows a part of the results.

Target: human ether-à-go-go-related gene (hERG) potassium channel (human, UniProt Q12809)
Experiment: primary screen, population patch clamp on CHO cells stably expressing hERG

Chain of human ether-à-go-go-related gene (hERG) potassium channel (Q12809 whole entry, looked up): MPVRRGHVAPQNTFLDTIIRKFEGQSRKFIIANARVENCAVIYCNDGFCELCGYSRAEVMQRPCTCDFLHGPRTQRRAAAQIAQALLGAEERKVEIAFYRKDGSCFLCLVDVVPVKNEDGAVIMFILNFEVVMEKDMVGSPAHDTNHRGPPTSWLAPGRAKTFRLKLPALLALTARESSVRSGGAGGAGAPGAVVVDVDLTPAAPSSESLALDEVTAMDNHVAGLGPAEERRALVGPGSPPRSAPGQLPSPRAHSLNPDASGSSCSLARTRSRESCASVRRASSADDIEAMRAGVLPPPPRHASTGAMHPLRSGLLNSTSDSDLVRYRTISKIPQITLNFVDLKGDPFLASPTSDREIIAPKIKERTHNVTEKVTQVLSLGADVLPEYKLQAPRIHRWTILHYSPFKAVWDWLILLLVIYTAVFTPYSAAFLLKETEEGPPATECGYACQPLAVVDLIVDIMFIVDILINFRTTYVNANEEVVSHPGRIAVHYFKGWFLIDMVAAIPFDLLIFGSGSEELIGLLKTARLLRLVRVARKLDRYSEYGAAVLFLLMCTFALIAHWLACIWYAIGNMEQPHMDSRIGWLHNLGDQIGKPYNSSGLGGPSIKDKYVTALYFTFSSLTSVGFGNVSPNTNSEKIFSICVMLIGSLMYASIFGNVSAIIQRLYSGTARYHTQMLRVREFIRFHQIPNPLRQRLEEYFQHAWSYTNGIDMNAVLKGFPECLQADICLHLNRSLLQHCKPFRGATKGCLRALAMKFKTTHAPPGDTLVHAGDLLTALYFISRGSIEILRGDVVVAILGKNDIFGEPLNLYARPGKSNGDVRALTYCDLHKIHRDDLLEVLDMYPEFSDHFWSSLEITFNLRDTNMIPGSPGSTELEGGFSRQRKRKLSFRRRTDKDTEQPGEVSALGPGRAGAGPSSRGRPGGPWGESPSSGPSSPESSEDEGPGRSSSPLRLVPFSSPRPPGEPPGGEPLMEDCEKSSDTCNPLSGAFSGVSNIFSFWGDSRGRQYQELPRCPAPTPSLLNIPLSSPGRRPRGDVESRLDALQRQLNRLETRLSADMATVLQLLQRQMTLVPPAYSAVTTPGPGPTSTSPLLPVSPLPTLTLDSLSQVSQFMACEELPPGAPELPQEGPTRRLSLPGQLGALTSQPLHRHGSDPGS

| Structure (SMILES) | hERG current change (%, negative = inhibition) at 1uM |
| --- | --- |
| OC(C#CCN1CCCCC1)(c1ccccc1)c1ccccc1 | -4.27% |
| CSc1nc2nc3c(cc2c(=O)n1-c1ccccc1C)COC(C)(C)C3 | -0.995% |
| Cc1ccc(C2=NOC(C)(c3nnc(-c4ccncc4)o3)C2)cc1 (centres unmarked) | 10.5% |
| CCOC(=O)Cn1nc(C)n(-c2ccccc2)c1=O | -13.3% |
| Cc1cc(C)c(NC(=O)CN2C(=O)NC(Cc3ccccc3)C2=O)c(C)c1 (centres unmarked) | 11.3% |
| O=S(=O)(/N=C/c1ccccc1O)c1cccs1 | 10.7% |
| CC(=O)c1c(C)[nH]c(C(=O)CSc2nc3ccc(C)cc3[nH]2)c1C | 7.46% |
| CCCc1nc2oc3c(Cl)ncnc3c2c2c1CCCC2 | 11.2% |
| CS(=O)(=O)O.OC(CCN1CCCCC1)(c1ccccc1)c1ccccc1 | -13.9% |
| O=c1cc(Nc2ccc3c(c2)OCCO3)[nH]c(=O)n1Cc1ccc(F)cc1 | 1.16% |
| Cc1ccc(-c2noc(-c3ccccc3C(=O)N3CCN(C)CC3)n2)cc1 | -13.9% |
| COc1ccc(CCNC(=O)Cn2cnc3sc(C)c(-c4ccc(F)cc4)c3c2=O)cc1OC | 11.1% |
| Cc1ccn2c(c1)nc(=O)c1cc(S(=O)(=O)N3CCOCC3)ccc12 | 8.6% |
| COc1ccccc1/C=N/NC(=O)c1ccc(NC(=O)c2ccccc2Br)cc1 | 7.53% |
| COc1cc(C2c3c([nH]c(=O)[nH]c3=O)Nc3ccc4ccccc4c32)ccc1O (centres unmarked) | 0.257% |
| O=C(CNC(=O)c1ccccc1C(=O)O)c1ccccc1 | -4.41% |
| OCCC1CN(Cc2nc(-c3ccccc3)cs2)CCN1Cc1ccc(F)cc1 (centres unmarked) | -47.1% |
| CCOc1ccc(N(C(C)C(=O)N/N=C(\C)C(C)(C)C)S(C)(=O)=O)cc1 (centres unmarked) | 7.81% |
| O=C(NCc1ccco1)/C(=C/c1ccco1)NC(=O)c1ccco1 | 9.62% |

| Structure (SMILES) | hERG current change (%, negative = inhibition) at 1uM |
| --- | --- |
| COc1ccc(CNC(=O)OCCN2CCN(Cc3ccccc3)CCC2=O)cc1 | -8.62% |
| O=C(NCCC(=O)N1CCCC(C(F)(F)F)C1)c1ccc(Br)cc1 (centres unmarked) | 6.81% |
| COc1ccc(C2N(S(=O)(=O)c3ccc(C)cc3)CCN2S(=O)(=O)c2ccc(C)cc2)cc1 | -0.113% |
| Cc1cc(C)c(C)c(S(=O)(=O)NC2CCN(Cc3ccccc3)CC2)c1C.Cl | 6.53% |
| COc1ccc(CN2CCC(n3nccc3NC(=O)CCCc3ccccc3)CC2)cc1C | -67.3% |
| O=C(O)c1cccc(N2C(=O)C3CC=CCC3C2=O)c1 (centres unmarked) | -1.07% |
| Cc1cc(C)c2c(N)c3cccc(C)c3nc2n1 | -29.8% |
| CCOC(=O)N1CCN(C(=O)C2CCN(S(=O)(=O)c3cc(OC)ccc3OC)CC2)CC1 | 10.1% |
| C=CCNC(=S)N(Cc1ccccc1)Cc1ccccc1 | 7.39% |
| CCCCc1nc(SCC(=O)Nc2ccc(S(N)(=O)=O)cc2)n[nH]1 | -0.301% |
| Cc1cc(O)c(/C=N/Nc2ccc(Cl)cc2)c(=O)o1 | 11.5% |
| Cc1ccc(C(=O)c2c(NC(=O)c3ccccc3C)sc(C)c2C)cc1 | -0.94% |
| CCN(CC)CCCN=Cc1c(O)n(-c2ccccc2F)c(=O)[nH]c1=O | 17.5% |
| O=C(O)CCC(=O)Nc1ccccc1C(=O)NC1CCCCC1 | 10% |
| O=C(CNC(=O)c1cccc(Br)c1)N/N=C/c1cn[nH]c1-c1ccccc1 | 3.87% |
| COc1ccc(OC)c(C2C=C(C34CC5CC(CC(C5)C3)C4)NC(=S)N2)c1 (centres unmarked) | 3.55% |
| CS(=O)(=O)Nc1ccccc1NS(C)(=O)=O | 14.1% |
| COC(=O)c1cc(C(=O)OC)n(Cc2ccc(Cl)cc2Cl)n1 | 9.47% |
| Cl.OC(CNCc1ccccc1)COCc1ccc(Cl)cc1 (centres unmarked) | -8.21% |

| Structure (SMILES) | hERG current change (%, negative = inhibition) at 1uM |
| --- | --- |
| O=C(Nc1ccccc1N1CCN(c2ccccc2)CC1)C1CCCCC1 | 2.39% |
| Cc1ccc(N2C(=O)C(NC(=O)c3ccccc3F)(C(F)(F)F)C3=C2CC(C)(C)CC3=O)cc1 (centres unmarked) | 14.9% |
| COc1cc(/C=N/OCC(=O)Nc2ccc(OC(F)F)cc2)ccc1OCc1ccccc1 | 6.59% |
| COc1ccc(CCNC(=O)c2nn(C)cc2Cl)cc1 | -2.84% |
| COc1cccc(CN2CC(C(=O)NCCCc3ccc(C)cc3)CCC2=O)c1 (centres unmarked) | 5.43% |
| Cc1cc(OCCN2CCCC2)ccc1[N+](=O)[O-].O=C(O)C(=O)O | 7.94% |
| CCc1nnc(NC(=O)c2cccc(S(=O)(=O)N(C)c3ccc(OC)cc3)c2)s1 | 16.3% |
| C=CCn1cccc(C(=O)Nc2cc(OC)c(OC)c(OC)c2)c1=O | 16.3% |
| CC(=NCC1CCCO1)c1c(O)n(C2CCCCC2)c(=O)[nH]c1=O (centres unmarked) | 5.45% |
| Cc1ccc(NS(=O)(=O)c2ccc(OCC(=O)NCc3ccco3)cc2)cc1 | 10.7% |
| Cc1cc(C)c(OCCCCN2CCNCC2)c(C)c1.O=C(O)C(=O)O | 14.5% |
| O=C(Nc1ccc(N2CCCC(O)C2)cc1)c1snc2c(=O)[nH]cnc12 (centres unmarked) | 14.3% |
| CCN1CCN(c2cc(C)c3cc(NC(=S)N(CC)CC)ccc3n2)CC1 | -8.83% |
| CC(C)[C@H](NC(=O)c1ccccc1)C(=O)Nc1ccc2c(c1)OCO2 | 9.3% |
| CCCCn1c(=O)[nH]c(=O)c2c(C(=O)OCC)cc(-c3cccs3)nc21 | 4.54% |
| CSc1nc(C)c(CCO)c(=O)[nH]1 | 14% |
| Cc1ccccc1Cn1c2ccccc2c2cnn(CC(=O)NCCCN3CCOCC3)c(=O)c21 | -19% |
| CC(C)CCNC(=O)C(NS(=O)(=O)c1ccc2c(c1)c(=O)n(C)c(=O)n2C)c1ccccc1 (centres unmarked) | 11% |
